{
  "source": "paper PMC4336329",
  "about": "(PLoS ONE, 2015)",
  "note": "Out of some 310,000 compounds screened, about 14,000 (4.5%) showed an effect of 50% or more. The effect is printed as a negative number. The list shows a part of the results.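 Further: peak tail current of the secondary pulse compared with the same well before compound.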",
  "data": [
    {"target": "human ether-à-go-go-related gene (hERG) potassium channel (human, UniProt Q12809)", "sequence (Q12809 whole entry, looked up)": "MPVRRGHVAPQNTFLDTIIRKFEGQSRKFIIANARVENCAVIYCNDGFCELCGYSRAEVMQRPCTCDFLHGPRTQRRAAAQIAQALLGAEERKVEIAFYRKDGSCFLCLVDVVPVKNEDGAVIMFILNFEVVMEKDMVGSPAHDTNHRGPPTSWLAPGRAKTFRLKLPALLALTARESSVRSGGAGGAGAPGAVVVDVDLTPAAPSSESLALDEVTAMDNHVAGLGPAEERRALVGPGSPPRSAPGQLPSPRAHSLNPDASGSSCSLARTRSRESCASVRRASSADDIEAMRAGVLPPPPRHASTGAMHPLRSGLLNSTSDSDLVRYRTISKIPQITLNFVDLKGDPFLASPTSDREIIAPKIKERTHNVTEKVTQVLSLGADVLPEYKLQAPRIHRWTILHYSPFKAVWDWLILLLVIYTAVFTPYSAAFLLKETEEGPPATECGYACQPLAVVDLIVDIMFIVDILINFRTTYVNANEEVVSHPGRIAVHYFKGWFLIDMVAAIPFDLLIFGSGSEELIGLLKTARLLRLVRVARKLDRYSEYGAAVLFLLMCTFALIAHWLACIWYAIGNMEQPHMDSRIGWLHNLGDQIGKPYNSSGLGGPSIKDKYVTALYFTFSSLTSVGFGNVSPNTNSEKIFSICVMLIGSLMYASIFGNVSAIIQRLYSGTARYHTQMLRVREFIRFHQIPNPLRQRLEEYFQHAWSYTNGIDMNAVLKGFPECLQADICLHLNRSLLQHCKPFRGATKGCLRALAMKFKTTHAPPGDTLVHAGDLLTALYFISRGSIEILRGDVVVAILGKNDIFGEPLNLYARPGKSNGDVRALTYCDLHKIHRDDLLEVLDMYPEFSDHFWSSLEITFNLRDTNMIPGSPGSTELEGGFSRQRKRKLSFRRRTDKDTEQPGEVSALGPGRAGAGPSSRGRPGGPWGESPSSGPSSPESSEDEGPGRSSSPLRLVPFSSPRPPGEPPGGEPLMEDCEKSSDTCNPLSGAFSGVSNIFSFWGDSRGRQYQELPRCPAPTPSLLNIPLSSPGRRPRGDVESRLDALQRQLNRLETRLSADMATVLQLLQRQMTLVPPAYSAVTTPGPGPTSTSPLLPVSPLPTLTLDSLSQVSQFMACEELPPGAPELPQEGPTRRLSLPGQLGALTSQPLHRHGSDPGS", "experiment": "primary screen, population patch clamp on CHO cells stably expressing hERG", "units": {"hERG current change (%, negative = inhibition) at 10uM": "%"}, "values": [
      {"smiles": "CC(C)OCC(O)CN", "note": "(stereo not shown)", "hERG current change (%, negative = inhibition) at 10uM": -6.51},
      {"smiles": "COc1ccc(-c2n[nH]c(=S)nc2-c2ccc(OC)cc2)cc1", "hERG current change (%, negative = inhibition) at 10uM": 29.2},
      {"smiles": "C=C(C)COc1ccc(-c2[nH]ncc2-c2ccccc2OC)c(O)c1", "hERG current change (%, negative = inhibition) at 10uM": 5.19},
      {"smiles": "CCOC(=O)c1cnc(-n2nc(C)cc2C)nc1Nc1ccc(O)cc1", "hERG current change (%, negative = inhibition) at 10uM": 13},
      {"smiles": "NNC(=O)C(=O)NCCCN1CCOCC1", "hERG current change (%, negative = inhibition) at 10uM": 25.9},
      {"smiles": "CC(C)Oc1ccc(C2CCC(=O)NC2=O)cc1", "note": "(stereo not shown)", "hERG current change (%, negative = inhibition) at 10uM": -12.8},
      {"smiles": "COc1ccc(CCNC(=O)CSc2ccc(-c3cccs3)nn2)cc1OC", "hERG current change (%, negative = inhibition) at 10uM": -5.88},
      {"smiles": "COCCn1nnnc1C(c1ccccn1)N1CCN(c2cccc(C)c2C)CC1", "note": "(stereo not shown)", "hERG current change (%, negative = inhibition) at 10uM": -4.23},
      {"smiles": "Cc1cc(C(=O)N2CCN(c3ccc(C(F)(F)F)cn3)CC2)c(C)o1", "hERG current change (%, negative = inhibition) at 10uM": -21.4},
      {"smiles": "CCOc1cccc(C(=O)NC(=S)NCc2cccnc2)c1", "hERG current change (%, negative = inhibition) at 10uM": -16.3},
      {"smiles": "CCn1nnnc1SCC(=O)c1cc(OC)ccc1OC", "hERG current change (%, negative = inhibition) at 10uM": -11.7},
      {"smiles": "Clc1ccc(OCc2nn3c(-c4ccncc4)nnc3s2)cc1", "hERG current change (%, negative = inhibition) at 10uM": -38.9},
      {"smiles": "O=C(C1CCC1)N1CCc2cc(S(=O)(=O)NC3CCCC3)ccc21", "hERG current change (%, negative = inhibition) at 10uM": 4.18},
      {"smiles": "Cc1cccc(NC(=O)COC(=O)COc2ccc3c(c2)CCC3)c1", "hERG current change (%, negative = inhibition) at 10uM": -5.68},
      {"smiles": "CC(=O)Nc1ccc(S(=O)(=O)Oc2ccc(Br)cc2C(=S)N2CCOCC2)cc1", "hERG current change (%, negative = inhibition) at 10uM": -10.2},
      {"smiles": "Cc1sc2ncnc(SCC(=O)NC(C)(C)C)c2c1C", "hERG current change (%, negative = inhibition) at 10uM": -2.48},
      {"smiles": "COc1ccccc1CNC(=O)[C@H](C)N1C(=O)N2CCc3c([nH]c4ccccc34)[C@@]2(C)C1=O", "hERG current change (%, negative = inhibition) at 10uM": -49.2},
      {"smiles": "O=C1NC(=S)N/C1=C/c1cccc([N+](=O)[O-])c1", "hERG current change (%, negative = inhibition) at 10uM": 21.8},
      {"smiles": "Cl.O=S(=O)(N1CCCCCC1)N1CCNCC1", "hERG current change (%, negative = inhibition) at 10uM": 22.4},
      {"smiles": "CC(=O)c1c(C)[nH]c(C(=O)N2CCN(c3ccc(F)cc3)CC2)c1C", "hERG current change (%, negative = inhibition) at 10uM": -20.7},
      {"smiles": "CS(=O)(=O)Nc1ccc(C(=O)NCCSc2ccc(Cl)cc2)cc1", "hERG current change (%, negative = inhibition) at 10uM": -47.3},
      {"smiles": "COc1ccc(S(=O)(=O)N2CCCCC2)cc1NC(=O)c1ccc2ccccc2n1", "hERG current change (%, negative = inhibition) at 10uM": 10.8},
      {"smiles": "CC1(C)CC(=O)C2=C(C1)Nc1cc(Cl)ccc1S2", "hERG current change (%, negative = inhibition) at 10uM": 13.3},
      {"smiles": "Cc1ccc(Cn2ncc3c(N4CCN(c5ccc(C)cc5)CC4)ncnc32)cc1", "hERG current change (%, negative = inhibition) at 10uM": 8.18},
      {"smiles": "Cn1c(=O)[nH]c(=O)c2c1nc1n2CCS1", "hERG current change (%, negative = inhibition) at 10uM": 1.6},
      {"smiles": "Cn1c(=O)c2c(nc(N/N=C/c3ccc(OC(=O)c4ccco4)cc3)n2Cc2ccccc2Cl)n(C)c1=O", "hERG current change (%, negative = inhibition) at 10uM": 10.9},
      {"smiles": "O=C(COc1cccc2ccccc12)NNC(=O)c1cnccn1", "hERG current change (%, negative = inhibition) at 10uM": 10.5},
      {"smiles": "CCOc1ccc2[nH]cc(S(=O)(=O)c3ccc(Cl)cc3)c(=O)c2c1", "hERG current change (%, negative = inhibition) at 10uM": 13.6},
      {"smiles": "CCC(C)N1CC23C=CC(O2)C(C(=O)OCc2ccccc2)C3C1=O", "note": "(stereo not shown)", "hERG current change (%, negative = inhibition) at 10uM": 5.54},
      {"smiles": "CN(CC(=O)Nc1ccccc1C(F)(F)F)C(=O)CCc1nc2ccccc2c(=O)[nH]1", "hERG current change (%, negative = inhibition) at 10uM": -13.3},
      {"smiles": "CN(C)S(=O)(=O)c1ccc(C(=O)OCc2nnc(-c3ccccc3)o2)cc1", "hERG current change (%, negative = inhibition) at 10uM": 3.3},
      {"smiles": "CCC(=O)Nc1ccc(S(=O)(=O)N2CCCCC2)cc1OC", "hERG current change (%, negative = inhibition) at 10uM": 0.654},
      {"smiles": "CC(=O)c1cn(C)c(=O)c2ccccc12", "hERG current change (%, negative = inhibition) at 10uM": 7.45},
      {"smiles": "Cc1cc(C)c(C(=O)Cn2nc(C(=O)O)c3ccccc3c2=O)cc1C", "hERG current change (%, negative = inhibition) at 10uM": 24.5},
      {"smiles": "Cc1noc(NS(=O)(=O)c2ccc(NC(=O)COc3ccc(Cl)cc3Cl)cc2)c1C", "hERG current change (%, negative = inhibition) at 10uM": -21.4},
      {"smiles": "COC1=C(c2ccccc2)C(=O)c2ccccc2C1=O", "hERG current change (%, negative = inhibition) at 10uM": -14.1},
      {"smiles": "c1ccc(-c2ccnc3ncnn23)nc1", "hERG current change (%, negative = inhibition) at 10uM": 16.2},
      {"smiles": "CN(CC(=O)Nc1ccc(Cl)c(C(F)(F)F)c1)C(=O)CC1Sc2ccccc2NC1=O", "note": "(stereo not shown)", "hERG current change (%, negative = inhibition) at 10uM": -2.38},
      {"smiles": "COc1cccc(-n2c(COc3ccc(C)cc3)nnc2SCC(N)=O)c1", "hERG current change (%, negative = inhibition) at 10uM": -2.86},
      {"smiles": "O=C1CC(c2ccccc2)Oc2cc(O)cc(O)c21", "note": "(stereo not shown)", "hERG current change (%, negative = inhibition) at 10uM": 1.83},
      {"smiles": "Cc1nn(CC(=O)Nc2ccc(S(N)(=O)=O)cc2)c(=O)c2ccccc12", "hERG current change (%, negative = inhibition) at 10uM": 10.5},
      {"smiles": "Cc1ccc(-n2[nH]c(=O)c(-c3ccccn3)c2C)cc1", "hERG current change (%, negative = inhibition) at 10uM": 12.6},
      {"smiles": "COc1ccc(Cl)cc1NC(=O)CN(C)C(=O)c1cc(C)oc1C", "hERG current change (%, negative = inhibition) at 10uM": -17.7},
      {"smiles": "CCOc1cc(CNCC2CCCN2CC)cc(Cl)c1OC.Cl", "note": "(stereo not shown)", "hERG current change (%, negative = inhibition) at 10uM": -18},
      {"smiles": "O=c1oc(-c2cccc([N+](=O)[O-])c2)nc2ccccc12", "hERG current change (%, negative = inhibition) at 10uM": 16.8},
      {"smiles": "COc1ccc2nc(N=Nc3ccc(O)c4ccccc34)sc2c1", "hERG current change (%, negative = inhibition) at 10uM": -5.2},
      {"smiles": "CC1(C)C(C=C(Cl)Cl)C1C(=O)NC(O)C(=O)c1ccccc1", "note": "(stereo not shown)", "hERG current change (%, negative = inhibition) at 10uM": 17.3},
      {"smiles": "Cc1ccc(/C=N/NC(=S)NC2CCS(=O)(=O)C2)cc1", "note": "(stereo not shown)", "hERG current change (%, negative = inhibition) at 10uM": -0.705},
      {"smiles": "C/C(=N\\Nc1nccnc1Cl)c1ccc(O)cc1", "hERG current change (%, negative = inhibition) at 10uM": 17.7},
      {"smiles": "Cc1ccc(CNC(=O)C2CC(c3ccccc3[N+](=O)[O-])=NO2)o1", "note": "(stereo not shown)", "hERG current change (%, negative = inhibition) at 10uM": -9.83},
      {"smiles": "COCC(C)NC(=S)NC(=O)c1cc(S(=O)(=O)N2CCOCC2)ccc1C", "note": "(stereo not shown)", "hERG current change (%, negative = inhibition) at 10uM": 5.17},
      {"smiles": "CCOc1ccc(S(=O)(=O)N(C)CC(=O)NC2CCCC2)cc1", "hERG current change (%, negative = inhibition) at 10uM": 1.6},
      {"smiles": "CC(c1ccco1)N(C(=O)Nc1ccc(Cl)cc1)c1ccccn1", "note": "(stereo not shown)", "hERG current change (%, negative = inhibition) at 10uM": -11.6},
      {"smiles": "C/C(N)=C(/C#N)C(=O)COC(=O)CCSc1ccccc1Cl", "hERG current change (%, negative = inhibition) at 10uM": 6.29},
      {"smiles": "COc1ccc(CCN2C(=O)C3C4CC(C5C(C(=O)O)=NOC45)C3C2=O)cc1OC", "note": "(stereo not shown)", "hERG current change (%, negative = inhibition) at 10uM": 15.4},
      {"smiles": "CCOC(=O)Cn1c(=O)c(-c2ccccc2NCc2ccccc2)nc2ccccc21", "hERG current change (%, negative = inhibition) at 10uM": 14.5},
      {"smiles": "CC(OC(=O)/C=C/c1cccs1)C(=O)Nc1ccc(C(N)=O)cc1", "note": "(stereo not shown)", "hERG current change (%, negative = inhibition) at 10uM": 8.48},
      {"smiles": "CN1CCc2nc(NC(=O)c3cccc(S(=O)(=O)N4CCc5ccccc54)c3)sc2C1", "hERG current change (%, negative = inhibition) at 10uM": -0.592}
    ]}
  ]
}
